± gives the uncertainty stated by the source. The sequences are guide strands of siRNAs; only the seed at positions 2 to 7 varies.
Legend:
3LL = experiment: cell viability relative to siNT1 control; higher = less toxic; conditions: concentration: 10 nM; 96 h; Mus musculus;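 also: Luminescence-based viability of cells reverse transfected in 384-well plates with lipid-complexed siRNAs built on a non-toxic 19mer backbone whose passenger strand carries 2′-O-methyl groups at positions 1 and 2, triplicates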
H460 = experiment: cell viability relative to lipid-only control; HeyA8 human ovarian and H460 human lung cancer; M565 mouse liver and 3LL mouse lung cancer; siNT1 is a non-toxic control siRNA; higher = less toxic; conditions: concentration: 10 nM; 96 h; Homo sapiens
Protocol: (§1)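 Arrayed screen of 4096 siRNA duplexes, each carrying one of all possible 6mer seeds at guide-strand positions 2-7 in a fixed neutral 19mer scaffold (constant flanks: U at position 1, then ACAUGUAAACCA, plus a 3' AA overhang). The passenger strand is 2'-O-methylated at positions 1-2 so only the guide strand loads into RISC. Duplexes were reverse-transfected at 10 nM with RNAiMAX in triplicate in 384-well plates; viability was read by CellTiter-Glo ATP content 96 h after transfection. Values are % viability normalised to lipid-only wells (HeyA8, H460, M565) or to siNT1 (3LL).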

HeyA8 = experiment: as above; conditions: concentration: 10 nM; 96 h; Homo sapiens
Protocol: as §1

M565 = experiment: as above; conditions: concentration: 10 nM; 96 h; Mus musculus
Protocol: as §1
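For cell viability relative to lipid-only control in this document: reverse lipid transfection in 384-well plates, in triplicate, of duplexes on a non-toxic 19mer backbone with passenger strand 2′-O-methylated at positions 1 and 2, luminescence viability read-out.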

Sequence | cell viability (3LL) [%] | cell viability (H460) [%] | cell viability (HeyA8) [%] | cell viability (M565) [%]
UCCGUGAACAUGUAAACCAAA | 89.7 ± 13 | 53 ± 7.5 | 77.5 ± 3.8 | 42.4 ± 9.3
UCCGUGCACAUGUAAACCAAA | 19.6 ± 2.5 | 23.3 ± 3.6 | 9.26 ± 0.75 | 6.2 ± 1.1
UCCGUGGACAUGUAAACCAAA | 95.7 ± 7.5 | 31.6 ± 3.7 | 59.3 ± 11 | 21.5 ± 8.3
UCCGUGUACAUGUAAACCAAA | 80.5 ± 6.5 | 69.9 ± 9.8 | 59.3 ± 4.8 | 25.4 ± 6.4
UCCGUUAACAUGUAAACCAAA | 95.8 ± 17 | 74.2 ± 23 | 85.3 ± 1.4 | 68.8 ± 6.5
UCCGUUCACAUGUAAACCAAA | 54.2 ± 19 | 36.1 ± 7.2 | 13.1 ± 1.4 | 16.7 ± 3
UCCGUUGACAUGUAAACCAAA | 94.7 ± 18 | 69.4 ± 5.2 | 82.4 ± 2.8 | 80.5 ± 18
UCCGUUUACAUGUAAACCAAA | 75.4 ± 17 | 63.3 ± 7.1 | 61.7 ± 6.4 | 80.6 ± 17
UCCUAAAACAUGUAAACCAAA | 88.2 ± 16 | 78.1 ± 12 | 87.8 ± 5.8 | 81.9 ± 17
UCCUAACACAUGUAAACCAAA | 78.1 ± 14 | 70.9 ± 3.6 | 76.7 ± 6.3 | 80.9 ± 5
UCCUAAGACAUGUAAACCAAA | 92.6 ± 13 | 67.8 ± 7.9 | 84 ± 5.7 | 69.4 ± 7.5
UCCUAAUACAUGUAAACCAAA | 91.1 ± 14 | 75.3 ± 13 | 87.7 ± 4.6 | 62.5 ± 10
UCCUACAACAUGUAAACCAAA | 86.3 ± 18 | 73.9 ± 12 | 89.4 ± 6.8 | 75.1 ± 6.3
UCCUACCACAUGUAAACCAAA | 44.7 ± 16 | 45.8 ± 7 | 30.8 ± 1.6 | 8.9 ± 1.1
UCCUACGACAUGUAAACCAAA | 91 ± 15 | 64.3 ± 2.8 | 90.4 ± 3.9 | 78.7 ± 5.5
UCCUACUACAUGUAAACCAAA | 78.8 ± 26 | 73.2 ± 4.8 | 50.6 ± 1 | 76 ± 2.7
UCCUAGAACAUGUAAACCAAA | 85.6 ± 15 | 69.6 ± 5.5 | 84.8 ± 4 | 79.1 ± 8.6
UCCUAGCACAUGUAAACCAAA | 31.5 ± 6.2 | 26.7 ± 1.3 | 21.1 ± 1 | 24.8 ± 1
UCCUAGGACAUGUAAACCAAA | 58.9 ± 18 | 42 ± 2 | 35.7 ± 1.3 | 51.3 ± 3.7
UCCUAGUACAUGUAAACCAAA | 32.5 ± 5.7 | 51.5 ± 4.5 | 53.5 ± 6.9 | 40.1 ± 11
UCCUAUAACAUGUAAACCAAA | 96.6 ± 24 | 77.6 ± 13 | 94.3 ± 3.1 | 80.8 ± 15
UCCUAUCACAUGUAAACCAAA | 58.9 ± 20 | 69.9 ± 10 | 72 ± 2.8 | 54.7 ± 7
UCCUAUGACAUGUAAACCAAA | 89.5 ± 15 | 73.2 ± 11 | 85.8 ± 2.3 | 80.9 ± 12
UCCUAUUACAUGUAAACCAAA | 79.7 ± 21 | 83.5 ± 7.8 | 80.7 ± 5.5 | 82.3 ± 9

Sequence | cell viability (3LL) [%] | cell viability (H460) [%] | cell viability (HeyA8) [%] | cell viability (M565) [%]
UCCUCAAACAUGUAAACCAAA | 91.2 ± 15 | 62.2 ± 9 | 90.1 ± 7.5 | 59.8 ± 8.4
UCCUCACACAUGUAAACCAAA | 82.5 ± 22 | 41.6 ± 2 | 76.6 ± 1.5 | 30.3 ± 3.9
UCCUCAGACAUGUAAACCAAA | 89.9 ± 22 | 60 ± 3.8 | 95.3 ± 4.5 | 39.6 ± 8.1
UCCUCAUACAUGUAAACCAAA | 89.5 ± 20 | 80.5 ± 1.2 | 91.3 ± 3.6 | 61 ± 14
UCCUCCAACAUGUAAACCAAA | 85.3 ± 18 | 73.5 ± 15 | 83.2 ± 7.1 | 58.4 ± 11
UCCUCCCACAUGUAAACCAAA | 46.9 ± 11 | 44.2 ± 1.4 | 35.6 ± 2.1 | 58.9 ± 3
UCCUCCGACAUGUAAACCAAA | 86.9 ± 14 | 61.5 ± 8.4 | 86.9 ± 4.8 | 65.8 ± 8.5
UCCUCCUACAUGUAAACCAAA | 74 ± 25 | 61.9 ± 6.7 | 62.3 ± 1.1 | 51.8 ± 7.2
UCCUCGAACAUGUAAACCAAA | 92.7 ± 21 | 63.7 ± 7.7 | 88.8 ± 6.9 | 65 ± 3.1
UCCUCGCACAUGUAAACCAAA | 64.3 ± 25 | 74.6 ± 11 | 39.2 ± 6 | 34.8 ± 7.7
UCCUCGGACAUGUAAACCAAA | 90.7 ± 21 | 57.3 ± 9.3 | 80.4 ± 5.5 | 56.2 ± 7.4
UCCUCGUACAUGUAAACCAAA | 83.5 ± 17 | 71.1 ± 8.9 | 68.9 ± 12 | 59.7 ± 6
UCCUCUAACAUGUAAACCAAA | 91.4 ± 20 | 66.1 ± 2.6 | 91.3 ± 2.8 | 67.9 ± 8.5
UCCUCUCACAUGUAAACCAAA | 63.1 ± 10 | 41.4 ± 7.6 | 73.8 ± 4.8 | 58.9 ± 2.8
UCCUCUGACAUGUAAACCAAA | 88.9 ± 14 | 63.3 ± 11 | 89.8 ± 4.8 | 64.1 ± 10
UCCUCUUACAUGUAAACCAAA | 91.7 ± 13 | 51 ± 5 | 82.7 ± 5.6 | 65.7 ± 6.8
UCCUGAAACAUGUAAACCAAA | 94.1 ± 16 | 94.6 ± 6.9 | 84.7 ± 2.1 | 86.1 ± 13
UCCUGACACAUGUAAACCAAA | 27.4 ± 3.1 | 43.6 ± 3.2 | 13.1 ± 1.9 | 7.29 ± 3.4
UCCUGAGACAUGUAAACCAAA | 95.9 ± 16 | 82.9 ± 22 | 88.9 ± 2.9 | 72.7 ± 7
UCCUGAUACAUGUAAACCAAA | 84.7 ± 18 | 75.5 ± 7.3 | 77.1 ± 2.4 | 72.9 ± 7.2
UCCUGCAACAUGUAAACCAAA | 88.7 ± 17 | 68.5 ± 5.2 | 68.7 ± 7.8 | 81.3 ± 13
UCCUGCCACAUGUAAACCAAA | 11.9 ± 2.1 | 43.7 ± 4.7 | 20 ± 2.7 | 3.23 ± 0.83
UCCUGCGACAUGUAAACCAAA | 84 ± 19 | 74.2 ± 19 | 71.4 ± 1.2 | 63.8 ± 3.3
UCCUGCUACAUGUAAACCAAA | 38.3 ± 5.6 | 59.8 ± 9.2 | 32.9 ± 4.7 | 34.8 ± 6.8

Source: the supplement of paper PMC6206098
